Experimental data from the supplement of paper PMC10338343.
± gives the standard deviation. The full ranking holds about 6,600 sequences; the median of “pre-steady-state target cleavage rate” is about 0.07, and the highest 2% start at about 0.72. The entries are a selection whose mix differs from that of the whole data set.

test system: MIWI (PIWIL1) piRISC loaded with Kctd7 piRNA (30 nt); assay: pre-steady-state target cleavage rate (min^-1); MIWI and MILI are mouse PIWI proteins and EfPiwi is from a freshwater sponge; tags in brackets are library labels; higher = faster piRNA-guided slicing of the target; settings: guide: Kctd7 piRNA 5'p-UGUUAAUCUCUCAGAGAAGGUGACAGUGAU; auxiliary factor: 500 nM mouse GTSF1
Protocol: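 Cleave-'n-Seq: a library of target RNAs (target site embedded in constant flanks, ACAGCATTCCGCGTTAGTGATATCCG... 5' flank; DNA-blocked outside the site) at 0.1 nM was incubated with 1 nM active mouse MILI or MIWI piRISC (synthetic 5'-monophosphorylated piRNA guide) with or without 500 nM mouse GTSF1 at 33 °C for 1 min to 16 h. Uncleaved targets were sequenced and normalised to non-target controls, and the pooled three trials were fitted to a burst-and-steady-state model to give the pre-steady-state cleavage rate (min^-1; k3 is constrained to at most 1e-4). Sequence is the target site only; target names encode pairing extent (gX:gY) and contiguous / 1-mismatch / 2-mismatch / bulge geometry. Fits with R² ≤ 0 are excluded.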

Sequence	pre-steady-state target cleavage rate
UAGUGAGUGACCUUCUCUGAGAGUUUAACA	0.269 ± 0.042
UAGUGACAGUGGAACUCUGAGUCAUUAACA	0.0112 ± 0.0083
UAGUGUCACACCUUCUCUGAGAGAUUAUGA	0.099 ± 0.028
AUCACUGUCACCUUCUCUGAGAGAAUAUGA	0.0904 ± 0.029
UACACUGUCACCUUCUCUGAGUGAUUAACA	0.0334 ± 0.0073
AACUCUGUCACCUUCUCUGAGAGAUUAACA	0.715 ± 0.034
UACACUGUCACCUUCUCUGAGAGAUUAGCA	0.266 ± 0.039
UACACUGUCACCUUCUCUGAUAGAUUAACA	0.604 ± 0.03
AUCACUGUCUCCUUCUCUGAGAGAAUAACA	0.335 ± 0.056
UAGUCUCUCACCUACUCUGAGAGAUUAACA	0.0366 ± 0.0071
UAGUGACACACCUUCACUGAGUGAUUAACA	0.0157 ± 0.005
UACACUGACACCUUCUCUGUGAGAUUAACA	0.181 ± 0.019
UAGUGUGUCACCUUCUCUGAGAGAAUAACA	0.32 ± 0.052
UAGUGUGUCACUCUUCUCUGAGAGAUUAACA	0.3 ± 0.025
UACACUGUGACCUUCUCUGAGACAUUAACA	0.143 ± 0.011
UAGUGUGUCACCUUCUCUGAGAAAUUAACA	0.173 ± 0.019
UACAGUGUCACCUUCUCUCAGAGAUUAACA	0.119 ± 0.013
UACACUGUCACCUUCUCUGAGAGUAAUUGA	0.0959 ± 0.034
UUCAGUGUCACCUUCUCUGAGACAUUAACA	0.188 ± 0.016
UAGUGUGUCACCUUCUCUGAGAGAUUAUACA	0.236 ± 0.035
AUCUCUGUCACCUUCUCUGUGAGAUUAACA	0.276 ± 0.011
UUCACUGUCACCUUCUCUGAGAGAUUACA	0.449 ± 0.07
UAGUCUGUCAGGUUCUCUGAGAGAUUAACA	0.318 ± 0.023
UAGUGUCUCACCUUCACUGAGAGAUUAACA	0.276 ± 0.019

Sequence	pre-steady-state target cleavage rate
AUCACUGACACCUUCUCUGAGAGAUAAACA	0.305 ± 0.054
UACACUGUCACCUUCUGUGAGAGAUUAACA	0.613 ± 0.034
UAGACUGUGACCUUCUCUGUGAGAUUAACA	0.22 ± 0.013
UAGUGACAGACCUUCUCUGAUAGAUUAACA	0.257 ± 0.029
UAGUCUGUCACCUUCUGUCAGAGAUUAACA	0.01 ± 0.0034
UUGUGUGUCACCUUCUCUGAGAGAUUAAGA	0.166 ± 0.025
UAGUGACAGUCCUUCUCUGAGAGAGUUAACA	0.0494 ± 0.009
UAGUGACUCACCAUCUCUGAGAGAUUAAGA	0.0202 ± 0.0057
UAGUGACACACCUUCUCUGAGUCAUUAACA	0.00484 ± 0.003
UAGUGUGUCUCGUUCUCUGAGAGAUUAACA	0.345 ± 0.027
AUCAGUGUCACCUUCUCAGAGAGAUUAACA	0.425 ± 0.027
UACACUGAGACCUUCUCUGAGAGAUUAAGA	0.09 ± 0.026
AAUCACUGUCACCUUCUCUGAGAGAUUAACA	0.81 ± 0.043
UAGACUGAUCACCUUCUCUGAGAGAUUAACA	0.65 ± 0.046
UAGUGACACACCUUCUCUGAGAGUAUAACA	0.0487 ± 0.0099
AUCACUGUCACCUUCUCUAGAGAUUAACA	0.192 ± 0.02
AUCACUGUCACCUUCUCUGAGAGAUUAACG [g2:g30:cont:t1G]	0.713 ± 0.037
UUCACUGUCUGGUUCUCUGAGAGAUUAUGA	0.00454 ± 0.0026
UAGUGUGUCACGUUCUCUGACAGAUUAACA	0.172 ± 0.02
UAGUGACAGAGCUUGUCUGAGAGAUUAACA	0.00642 ± 0.0034
UAGUGUGUCACCUUCUCUGUGAGAUUUACA	0.138 ± 0.02
UAGUGACAGUCCUUCUGUGAGAGAAUAACA	0.00351 ± 0.0033
UAGUGACAGACCAUCUCUGAGAGAUUAACA	0.0276 ± 0.0056
UAGACUGUGUGCUUCUCUGAGAGAUUAACA	0.0272 ± 0.0052

Sequence	pre-steady-state target cleavage rate
UAGUGACAGUCACUUCUCUGAGAGAUUAACA	0.4 ± 0.043
UUCACUGUCACCUACUCUGAGAGAUAUUGA	0.0061 ± 0.0034
AAGACUGUCACCUUCUCUGAGAGAUUAUGA	0.0913 ± 0.017
UACACUGUCACCUUCUCAGAGUGAUUAACA	0.0181 ± 0.0067
UAGUGACACACCAUCUCAGAGAGAUUAACA	0.0136 ± 0.0046
AUCAGUGUCACCUUCUCUGAGAGAUUUUGA	0.102 ± 0.027
UAGUCAGUCACCUUCUCUGAGACAUUAACA	0.215 ± 0.017
UAGUGACUCACCUUCUCUCAGAGAUUAUCA	0.0386 ± 0.0072
AUCACUGUGACCUUCUCUGAGAGAUUAAGA	0.194 ± 0.027
AUCAGUGUCACCUUCUCUCAGAGAUUAACA	0.118 ± 0.0098
UAGUCUGAGACCUUCUCUGAGAGAUUAUGA	0.0156 ± 0.0038
UAGUGACACACCUUCGCUGAGAGAUUAACA	0.106 ± 0.012
UAGUGACUCACCUUCUCUGAGAGGUUAACA	0.217 ± 0.025
UAGUCUGUCACCAUCUCUGAGAGAUAAACA	0.246 ± 0.025
UUCACUCUCACCUUCUCUGACAGAUUAACA	0.525 ± 0.031
UAGUCUGUCACCUUGCUCUGAGAGAUUAACA	0.47 ± 0.081
UUCACUGUCACCUUCUCUGAGAGAUUAAACA	0.406 ± 0.04
UUCACUGUCACCUUCUCAGAGAGAAUAACA	0.0792 ± 0.02
UAGUGACUCACCUUCUCUGAGAGGAUUAACA	0.172 ± 0.015
UAGUGAGUCACCUUACUCUGAGAGAUUAACA	0.38 ± 0.034
UAGUGACAGACCUUCGCUGAGAGAUUAACA	0.0274 ± 0.0057
UUCACUGUCACCUUCUCUGAGUCAUUUUGA	0.00539 ± 0.0029
UAGUGACAGACCUUCUCUGAGAGUAUAACA	0.0111 ± 0.0039
UAGUGACAGACCUUCUCUGAGAGAUUAUACA	0.0925 ± 0.017
